Several values for one entry are separate records, joined by “and”; a condition that tells them apart may be missing. Identical values can stand only once.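 96-well plates; 48 h exposure; 5 concentrations. Endpoints by linear interpolation between flanking doses. Not reached: highest tested concentration assigned. Here, GI50 denotes the concentration required for 50% inhibition of growth. TGI: total growth inhibition.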

For the assay, the system named is NCI-H322M lung. In words: inhibition of tumour cell growth, NCI panel, 48 h.
For `COc1ccc2c(c1)CCCC1C3=NCCC3(C)CSC21` (stereo not given), the TGI is > 100 µM. As for `CCCCCCN1CCN(Cc2ccc(N(CC)CC)cc2)C(=O)C1=O`, the GI50 is 6.48 µM and the TGI is > 100 µM. For the compound `O=C(NN1C(=O)C=CC1=O)c1ccccc1Nc1ccccc1C(=O)NN1C(=O)C=CC1=O`, the TGI is > 100 µM. On the same count and under the same terms, the same measure for `COC(=O)c1ccccc1CC(Cc1ccccc1)C(=O)OC` (stereo not given): > 100 µM. As to `Cc1ccc(/C(=C/C=C(C#N)C#N)Sc2ccccn2)cc1`, the GI50 is 12.7 µM and the TGI was determined as 28.8 µM.

As for `O=[N+]([O-])c1ccc(N=Nc2c(O)[nH]c3ccccc23)cc1`, the TGI is > 92.7 µM. Same read-out and setting: the figure for `O=C(NC1(C(=O)O)CC1c1ccccc1)c1ccccc1` (stereo not given) is > 100 µM; for `CNC(=O)OCc1[nH]ccc2c(C)c3nc4ccc(OC)cc4c3cc12` it is 15.2 µM. As for `Cc1c(O)c(=O)ccn1CCO`, the TGI was > 100 µM. Turning to `COC(=O)[C@@H]1CCCN1C(=O)[C@H]1CCCN1C(=O)[C@@H](Cc1c[nH]c2ccccc12)NC(=S)Nc1cc(C(F)(F)F)cc(C(F)(F)F)c1`, the GI50 was 3.26 µM and the TGI was found to be 10.6 µM. For `CC(=O)O[C@H]1CC[C@@]2(C)C(=CC[C@@H]3C2CC[C@]2(C)Nc4[nH]ncc4CC32)C1` (stereo not given in full), the TGI was > 100 µM. Still for that read-out and setting: the figure for `CN(C)S(=O)(=O)c1ccc(Nc2ccc(O)c3c2C(=O)c2c([N+](=O)[O-])ccc(O)c2C3=O)cc1` is > 100 µM; for `COc1cc2c3c(n(C)c(=O)c2cc1OC)-c1cc2c(cc1/C3=C/[C@H](N)CCCCN)OCO2` it is 0.471 µM; for `O=C1/C(=C/c2ccco2)NC(=S)N1CN1CCOCC1` it is > 100 µM. Consider `O=C(O)CCCNS(=O)(=O)c1ccc2ccccc2c1`, for which the TGI is > 100 µM. Consider `CC(C)(C)c1cc(C2COC(=O)COCC(=O)OCCOCCOCCO2)cc(C(C)(C)C)c1O` (stereo not given), for which the TGI was > 100 µM. Take `C/C=C\C(CC(=O)NCCC1CN(C(=O)c2ccccc2)c2ccccc21)CC(=O)OC` (stereo not given): the TGI was > 100 µM. With `O=C(OCc1ccccc1)N1c2cc([N+](=O)[O-])ccc2C(=O)N2CCC[C@H]2C1O` (stereo not given in full), the TGI is > 100 µM.

`NC1=C(Cl)C(=O)c2ccccc2C1=O` registered a TGI of 20.9 µM.

In the case of `CCS(=O)(=O)c1c2cc(OC)ccc2nc2ccc(OC)cc12`, the TGI is > 100 µM. For `CC1CCC2(CC1)N=C1CCC(C)CC1C1(CCC(C)CC1)N2` (stereo not given), the TGI was > 100 µM. Same read-out and setting: the figure for `N#Cc1c(N2CCN(c3ccc([N+](=O)[O-])cc3)CC2)[n+](=O)c2ccc(Cl)cc2n1[O-]` is > 46.2 µM. Consider `Cc1cn2c(=O)n(c1=O)Cc1ccccc1C2`, for which the GI50 was > 100 µM and the TGI was > 100 µM.

For `CN1C(=O)C(c2c[nH]c3ccccc23)=C(c2c(-c3c[nH]c4ccccc34)[nH]c3ccccc23)C1=O`, the GI50 was 2.38 µM and the TGI stood at 6.6 µM. Consider `COc1ccc(/C=C2\CN(C)Cc3c2[nH]c(=O)c(C#N)c3-c2ccc(OC)cc2)cc1`, for which the TGI is > 100 µM. On the same count and under the same terms, the figure for `COc1ccc2c(c1)CC[C@@H]1[C@@H]2CC[C@]2(C)C(=O)/C(=C/c3cc(OC)c(OC)c(OC)c3)C[C@@H]12` is 96 µM. For the compound `CCC(=O)c1ccc2c(c1)N(CCCN1CCN(CCO)CC1)c1ccccc1S2`, the GI50 is 17.9 µM and the TGI is 32.9 µM. `Cc1n(CC(=O)c2ccccc2)nc2sc(N)n[n+]12` came in with a TGI of 87.5 µM. On the same count and under the same terms, the figure for `Cn1c(=O)oc2cc(C3CCC(=O)N3Cc3ccc(Cl)cc3)ccc21` (stereo not given) is > 100 µM. Turning to `CC(=N\N=C\c1ccccn1)/C(C)=N/N=C(C)/C(C)=N/N=C(C)/C(C)=N/N=C/c1ccccn1`, the TGI is > 100 µM.

Consider `O=C(C#Cc1cn(C2CC(O)C(CO)O2)c(=O)[nH]c1=O)c1ccccc1` (stereo not given), for which the TGI is > 100 µM. Regarding `COc1ccc(-n2c(C)nc3c(c(C)nn3-c3ccccc3)c2=O)cc1`, the GI50 was 0.53 µM and the TGI was > 100 µM. Regarding `Cc1cc(NC(=O)NC(=O)c2ccccc2NC(=O)CN)ccc1Oc1ncc(Br)cn1`, the GI50 was 0.449 µM; the TGI is 31.7 µM and > 100 µM.

As for `Cn1ccc(C(=O)NCCCCCNC(=O)c2ccn(C)c(=O)c2O)c(O)c1=O`, the TGI was > 100 µM. Still for that read-out and setting: the figure for `Nc1c(S(=O)(=O)O)cc(Nc2cccc(S(=O)(=O)/C=C/S(=O)(=O)O)c2)c2c1C(=O)c1ccccc1C2=O` is > 100 µM. With `O=C(Nc1cccc(-n2ccc3c(NC(=O)c4ccccc4)nccc32)c1)c1cc(N2CCOCC2)cc(C(F)(F)F)c1`, the GI50 was 1.09 µM and the TGI is > 100 µM. As to `COc1ccc2[nH]cc(-c3nc(-c4c[nH]c5ccncc45)cs3)c2c1`, the GI50 was 1.85 µM and the TGI amounted to 4.2 µM. For the compound `COc1cc2c(cc1OCCCN1CCN(c3cc(=O)oc4c(C)c(OC)ccc34)CC1)N=C[C@@H]1CCCN1C2=O`, the GI50 was 2.35 µM and the TGI came to 6.31 µM. Regarding `Cc1cc2c(cc1Br)C1(C)CCC(C)C1(C)O2` (stereo not given), the TGI was > 100 µM.

Turning to `COc1ccc(/C=C\c2cc(OC)c(OC)c(OC)c2)cc1OCC(=O)Nc1nc2ccc(OC(F)(F)F)cc2s1`, the GI50 is > 100 µM and the TGI was > 100 µM. Take `NC(=O)NCCCC(NC(=O)OCCCCCn1ccc(=O)[nH]c1=O)C(=O)O` (stereo not given): the TGI was > 100 µM. Turning to `COc1ccc(-c2cc(-c3nnc(SCC(=O)Nc4ccc(C(C)=O)cc4)o3)c3ccccc3n2)cc1`, the GI50 is > 100 µM and the TGI is > 100 µM. As for `COc1cc2ncn(-c3cc(OCc4ccccc4S(C)(=O)=O)c(C#N)s3)c2cc1OC`, the GI50 is > 25 µM and the TGI was > 25 µM.

`NC(N)=N/N=C/c1c(-c2ccc(Cl)c([N+](=O)[O-])c2)nc2ccccn12`: the GI50 is 2.01 µM and the TGI was 3.63 µM. On to `CC1(C)[C@@H]2C[C@H]1C(Cc1cccc(C[C@H]3c4cc(-c5ccccn5)ncc4[C@H]4C[C@@H]3C4(C)C)c1)c1cc(-c3ccccn3)ncc12` (stereo not given in full), for which the TGI was > 100 µM.

`CN(C)CC(NC(NCS)C(=O)NCCNc1ccc(NCCNC(=O)C(NCS)NC(CN(C)C)OCCl)c2c1C(=O)c1c(O)ccc(O)c1C2=O)OCCl` (stereo not given): the GI50 was 0.0942 µM; the TGI is 4.37 µM and 1.85 µM.

As to `COc1cc2c(cc1Cl)n([O-])c(C#N)c(N1CCN(c3ccc([N+](=O)[O-])cc3)CC1)[n+]2=O`, the TGI is > 100 µM. Still for that read-out and setting: the figure for `Nc1nc2cc(CNc3ccc(C(=O)NC(CCC(=O)O)C(=O)O)cc3)ccc2nc1-c1ccccc1` (stereo not given) is > 10 µM. Turning to `OCc1ccc(Oc2c3ccccc3nc3occc23)cc1`, the GI50 is 13.7 µM and the TGI was determined as 40.5 µM. Take `CO/N=C(/COc1c(-c2ccccc2)oc2ccccc2c1=O)c1ccc(F)cc1`: the GI50 was > 100 µM and the TGI was > 100 µM. As for `Clc1cc(Cl)cc(Nc2nc3ccccc3nc2-c2cccs2)c1`, the TGI is > 100 µM. On the same count and under the same terms, the same measure for `CCOC(=O)N(C)C1(c2ccccc2)CCN(CCCC(=O)c2ccc(F)cc2)CC1`: > 100 µM.

Consider `COc1ccc(-c2csc3c2-n2cccc2C3=O)cc1O`, for which the GI50 was 0.0738 µM and the TGI was > 100 µM. In the case of `CNCCOC(=O)/C=C1/CCC2C(C(O)CC3C(C)(C(=O)OC)CCCC23C)C1C` (stereo not given), the GI50 was 0.0245 µM and the TGI was determined as 0.0686 µM. `NC(=O)c1c2c(cc3c(=O)c4ccccc4[nH]c13)CCCC2`: the TGI is > 100 µM. On the same count and under the same terms, the figure for `CC(C)C1=CC23CCC4C(C)(C(=O)O)CCCC4(C)C2CC1C(C(=O)O)C3C(=O)O` (stereo not given) is > 100 µM; for `CCOc1cc(C2SCC(=O)N2c2nc3cc4sc(N5C(=O)CSC5c5ccc(O)c(OCC)c5)nc4cc3s2)ccc1O` (stereo not given) it is > 100 µM. With `N/C(=N\c1nc2ccccc2s1)NC(=O)Nc1cccc2ccccc12`, the GI50 is 0.637 µM and the TGI is > 100 µM. For `NC1=NC(c2ccc(F)cc2)C2=C(N1)c1ccc3ccccc3c1OCC2` (stereo not given) the same measures were 22.4 µM and > 100 µM. `COc1cc(C2S/C(=C/c3ccccc3)C(=O)N2c2cccc([N+](=O)[O-])c2)cc(OC)c1OC` (stereo not given): the TGI is > 100 µM.

`Cc1c(F)c(N)c2c(=O)cc(-c3ccc(NC(=O)C(N)CCCN=C(N)N)c(F)c3)oc2c1F` (stereo not given) yielded a TGI of 36.9 µM. Still for that read-out and setting: the figure for `O=[N+]([O-])c1ccc(Cl)cc1C=NC12CC3CC(CC(C3)C1)C2` is > 100 µM.

As to `O=C1C=CC(=O)c2c1ncc1c2nc2sccn21`, the GI50 is 22.3 µM and the TGI was > 100 µM.

Turning to `CCOC(=O)C(C)c1nc2cc(N3CCN(C)CC3)c(F)cc2[nH]c1=O` (stereo not given), the TGI was > 100 µM.

Regarding `CCCCCCOc1ccc(NC2=C(Cl)C(=O)c3ncccc3C2=O)cc1`, the TGI was determined as 3.77 µM. On to `CC(C)CCC[C@@H](C)[C@H]1CCC2C3=CCC4C(=O)C=CC(=O)C4C3CC[C@@]21C` (stereo not given in full), for which the GI50 was 0.361 µM and the TGI is 2.18 µM. Consider `CN(c1ccccc1Cl)S(=O)(=O)c1ccccc1[N+](=O)[O-]`, for which the TGI is > 100 µM.

As to `Cc1cc2nc3c4cccc(O)c4n(CCN(C)C)c3nc2cc1C`, the GI50 was 2.54 µM and the TGI came out at 9.1 µM.

`CC(C)(NC1=NCCO1)c1ccccc1`: the TGI is > 100 µM. The same measure, in the same setting: the same measure for `CC(=O)Nc1ccc(-c2nnc(SCC(=O)Nc3ccccc3C)o2)cc1`: > 100 µM; for `O=c1[nH]c2ccccc2c2oc(-c3ccccc3)nc12`: 51 µM.

As for `COc1cc2c(cc1OC)-c1c(c3ccc([N+](=O)[O-])cc3c(=O)n1CCCN)C2=O`, the GI50 is 3.48 µM and the TGI came to 11.4 µM. For `COc1cc(C(SCc2ccccc2)SCc2ccccc2)ccc1O`, the TGI is > 10 µM.

On to `COc1cc2c3c(n(CCCNCCNCCCN)c(=O)c2cc1OC)-c1cc2c(cc1C3=O)OCO2`, for which the GI50 is 2.37 µM and the TGI turned out to be 7.34 µM. As to `COc1ccc(C(O)/C(=C/n2ccnc2)c2ccccc2)cc1OC` (stereo not given), the TGI is > 100 µM. The same measure, in the same setting: the same measure for `CC(=O)NC1=CC(=O)c2cc(C)cc(O)c2C1=O`: 31.5 µM.

`Nc1ccc(-n2c(=O)oc3ccc(Cl)cc3c2=O)c(Cl)c1`: the GI50 is 0.326 µM and the TGI was determined as 2.34 µM. Turning to `COC(=O)n1c(CBr)c(Br)c2ccccc21`, the TGI is > 100 µM. As to `CCOC(=O)C(=Cn1c(=S)[nH]c2ccc([N+](=O)[O-])cc21)C(=O)OCC`, the TGI is > 100 µM. On the same count and under the same terms, the same measure for `COC(=O)c1cccc(C(=O)OC)c1`: > 100 µM. Regarding `O=[N+]([O-])c1cccc(-c2cc(-c3cc(Br)ccc3O)[nH]n2)c1`, the GI50 was 2.82 µM and the TGI amounted to 12.1 µM.
